Experimental data: PubChem BioAssay AID1347073 (National Center for Advancing Translational Sciences (NCATS), 2019)
Among all 45,000 compounds or so, about 200 (0.44%) were called active. This list was built around the results that the source calls inconclusive (neither active nor inactive); the mix of calls is not that of the screen. Calls come from the whole dose curve; as a rule, active = well fitted activation curve with a large enough effect; inconclusive = small, poorly fitted or top-dose-only effect; inactive = no such curve, though single readings can be large or run the other way. A potency beside an inconclusive call is a rough fit, not a confirmed value.

Test: qHTS of TDP-43 Inhibitors: NCGC Sytravon Library Screen; note: nearly all actives have a fitted effect of over 55% in size; for growth rescue (activation): 0% is about no effect
Details: yeast TDP-43 toxicity rescue, BacTiter-Glo growth, 24 h; growth rescue (activation): at 46.1 µM (top of the series)
Method in brief: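 TDP-43-expressing yeast, pregrown in raffinose, seeded at OD600 0.02 in galactose medium with compound for 24 hr at 30 deg C. Growth read by BacTiter-Glo luminescence, so rescue of toxicity appears as activation.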
Potency is the fitted concentration of half-maximal effect; tags give direction and shape of the fitted curve.

| SMILES | Potency | growth rescue (activation) |
| --- | --- | --- |
| Cc1ccc2oc(C(=O)N3CCC(O)(c4cccc(C(F)(F)F)c4)CC3)c(C)c2c1 | inconclusive: 22.4 µM [activator, partial curve, poor fit] |  |
| C=C1CCC[C@]2(C)C[C@H]3OC(=O)C(CNC(C)(CO)CO)[C@H]3CC12 (some centres not stated) | inconclusive: 11.2 µM [activator, partial curve, poor fit] |  |
| O=C(Cc1cccs1)Nc1ccccc1-c1nc2ccccc2[nH]1 | inconclusive: 17.8 µM [activator, single point] |  |
| COc1ccc(C)cc1NC(=O)COC(=O)Cc1ccc(-c2ccccc2)cc1 | inconclusive: 20 µM [activator, single point] |  |
| Cc1ccc(C)c(-n2cc(CNC(C)Cn3cncn3)c(-c3ccccc3)n2)c1 (configuration not stated) | inconclusive: 35.5 µM [activator, single point] |  |
| Fc1ccccc1-c1nc(NCC2CC2)nc2ccsc12 | inconclusive: 17.8 µM [activator, partial curve, poor fit] |  |
| COCCN1Cc2cccc(C(=O)Nc3cc(OC)ccc3OC)c2C1=O | inconclusive: 15.8 µM [activator, partial curve, poor fit] |  |
| CCCNC(=O)c1cc(C2CCCCN2C(=O)CCCc2ccccc2)on1 (configuration not stated) |  | inactive: 14.8% |
| COC(=O)c1sccc1Oc1ccc(F)cc1[N+](=O)[O-] | inconclusive: 14.1 µM [activator, single point] |  |
| COc1cnc(-c2ccccn2)nc1Sc1ccc(C)cc1 | inconclusive: 20 µM [activator, partial curve, poor fit] |  |
| Nc1c(C(=O)c2ccc(Br)cc2)oc2ccccc12 | inconclusive: 35.5 µM [activator, single point] |  |
| COc1ccccc1-c1nnc2sc(COc3ccc(F)cc3)nn12 | inconclusive: 17.8 µM [activator, partial curve, poor fit] |  |
| O=C1CC(N2CCN(c3ccccc3)CC2)C(=O)N1Cc1ccc(Cl)cc1 (configuration not stated) |  | inactive: 11.3% |
| CC1(C(=O)Nc2cnc3ccccc3c2)CCN1C(=O)CC(c1ccccc1)c1ccccc1 (configuration not stated) | inconclusive: 35.5 µM [activator, single point] |  |
| COc1ccc(NC(=O)CC23CC4CC(CC(Br)(C4)C2)C3)c(OC)c1 |  | inactive: 24% |
| O=C(NCc1ccco1)C1CC(c2ccc(F)cc2)=NO1 (configuration not stated) | inconclusive: 35.5 µM [activator, partial curve, poor fit] |  |
| COc1cccc(-c2nc(N3CC(C)CC(C)C3)c3ccccc3n2)c1O (configuration not stated) | inconclusive: 14.1 µM [activator, partial curve, poor fit] |  |
| O=C(NCc1ccco1)C1Cc2cc(Cl)ccc2O1 (configuration not stated) | inconclusive: 11.2 µM [activator, partial curve, poor fit] |  |
| CN(CC(=O)Nc1ncn[nH]1)S(=O)(=O)c1ccc(Cl)cc1 |  | inactive: 0.796% |
| O=C(CSc1ccccc1)NCCCc1ccccc1 | inconclusive: 35.5 µM [activator, partial curve, poor fit] |  |
| O=C(CCCc1nc2ccccc2s1)N1CCN(c2ccccc2)CC1 | inconclusive: 14.1 µM [activator, single point] |  |
| C=CCc1cccc2cc(C(=O)NC3CCCCC3)c(=O)oc12 |  | inactive: 16.9% |
| CC1CCC2(CC1)NC(=S)N(c1ccccc1)N2 (configuration not stated) | inconclusive: 35.5 µM [activator, partial curve, poor fit] |  |

| SMILES | Potency | growth rescue (activation) |
| --- | --- | --- |
| COC(=O)C(C)n1cnc2c(nnn2-c2cccc(OC)c2)c1=O (configuration not stated) |  | inactive: -2.9% |
| COc1ccc([N+](=O)[O-])cc1NC(=O)C(C)Sc1ccccc1 (configuration not stated) | inconclusive: 20 µM [activator, partial curve, poor fit] |  |
| N#Cc1sc2nc(-c3ccccc3)cc(-c3ccco3)c2c1N | inconclusive: 1.58 µM [activator, full curve, poor fit] |  |
| O=C(O)COc1ccccc1/C=C1\SC(=S)N(c2cccnc2)C1=O | inconclusive: 35.5 µM [activator, single point] |  |
| COc1cccc(-c2cnc3c(NC(C)=O)cc(-c4ccccc4OC)cn23)c1 | inconclusive: 12.6 µM [activator, partial curve, poor fit] |  |
| CN1Cc2c(N3CCOCC3)nc(SCCC#N)c(C#N)c2CC1(C)C | inconclusive: 35.5 µM [activator, single point] |  |
| CCOc1ccc(Cl)cc1-c1cc(C(=O)NCc2cccs2)[nH]n1 |  | inconclusive: 50.4% [activator] |
| COc1cc2c(cc1OC)C(C)N(C(=O)c1ccc(Br)o1)CC2 (configuration not stated) | inconclusive: 22.4 µM [activator, partial curve, poor fit] |  |
| COc1ccc(Cl)cc1C(=O)OCC(=O)N1CCCC(C)C1 (configuration not stated) |  | inactive: 9.54% |
| Cc1cc(/C=N/NC(N)=S)c(C)n1-c1cccc(Cl)c1 | inconclusive: 15.8 µM [activator, partial curve, poor fit] |  |
| O=C(c1ccccc1Br)N(Cc1ccccc1)c1ccccc1 | inconclusive: 15.8 µM [activator, single point] |  |
| COc1ccc(NC(NC(=O)c2ccc(OC)cc2)C(Cl)(Cl)Cl)cc1 (configuration not stated) | inconclusive: 11.2 µM [activator, partial curve, poor fit] |  |
| O=C(NCc1ccc(F)cc1)C(c1ccco1)N(C(=O)c1csnn1)C1CC1 (configuration not stated) |  | inactive: 5.65% |
| COCCNc1oc(-c2ccc(Cl)cc2)nc1C#N | inconclusive: 15.8 µM [activator, partial curve, poor fit] |  |
| Cc1cccc(N(CC(=O)NCc2ccco2)C(=O)CCC(=O)Nc2nccs2)c1C |  | inactive: -24.5% |
| CCOC(=O)c1c[nH]n(-c2ccccc2)c1=O | inconclusive: 12.6 µM [activator, partial curve] |  |
| C/C(=N\NC(=S)NC1CCCCC1)c1c(F)cccc1F | inconclusive: 20 µM [activator, partial curve, poor fit] |  |
| O=C(COC(=O)c1ccc(S(=O)(=O)N2CCCCC2)cc1)NCc1ccccc1 |  | inactive: -0.985% |
| CC1(C(=O)Nc2ccc3c(c2)OCCO3)CCN1C(=O)C1(c2ccccc2)CC1 (configuration not stated) | inconclusive: 12.6 µM [activator, partial curve, poor fit] |  |
| COc1ccc(OCC(O)Cn2c(N)nc3c2c(=O)[nH]c(=O)n3C)cc1 (configuration not stated) | inconclusive: 12.6 µM [activator, single point] |  |
| COc1cccc(NC(=O)C2(C)CCN2C(=O)CCc2ccc(Cl)cc2Cl)c1 (configuration not stated) | inconclusive: 22.4 µM [activator, single point] |  |
| COc1cccc(NC(=O)C2(C)CCN2C(=O)Cc2cccc3ccccc23)c1 (configuration not stated) | inconclusive: 22.4 µM [activator, single point] |  |
| Cc1ccc(CN(C(=O)COc2ccc(Cl)c(C)c2)C2CCS(=O)(=O)C2)o1 (configuration not stated) |  | inactive: 6.37% |

| SMILES | Potency | growth rescue (activation) |
| --- | --- | --- |
| COc1ccc2c(c1)c(CC(=O)OCC(=O)N(C)C)c(C)n2C(=O)c1ccc(Cl)cc1 | inconclusive: 12.6 µM [activator, partial curve, poor fit] |  |
| O=C(O)c1sccc1Oc1ccc(F)cc1[N+](=O)[O-] | inconclusive: 15.8 µM [activator, single point] |  |
| Cc1cc(F)ccc1NCc1ccccc1[N+](=O)[O-] |  | inactive: 11.3% |
| COc1ccc(-c2ccc(C(=O)Nc3ccc(NC(C)=O)cc3)c3occc23)c(C)c1 | inconclusive: 2.82 µM [activator, full curve, poor fit] |  |
| CCn1c2ccccc2c2cc(CN3CCN(Cc4ccccc4Cl)CC3)ccc21 |  | inactive: 10.6% |
| CC(C)CNc1oc(-c2ccccc2Cl)nc1C#N | inconclusive: 10 µM [activator, partial curve, poor fit] |  |
| N/C(=N\OC(=O)Nc1ccc(Cl)c(Cl)c1)c1ncc(C(F)(F)F)cc1Cl | inconclusive: 12.6 µM [activator, partial curve, poor fit] |  |
| O=C(CNS(=O)(=O)N1CCOCC1)N/N=C/c1cccnc1 |  | inactive: -8.92% |
| CCS(=O)(=O)c1ncc(Cl)c(C(=O)Nc2ccc(C)cc2)n1 | inconclusive: 17.8 µM [activator, single point] |  |
| CCCN(Cc1ccccc1)C(=S)Nc1ccc(C(C)=O)cc1 | inconclusive: 31.6 µM [activator, partial curve, poor fit] |  |
| CCCN(C(=O)c1cnccn1)c1c(N)n(Cc2ccccc2)c(=O)[nH]c1=O | inconclusive: 0.282 µM [activator, full curve, poor fit] |  |
| O=C(Nc1ccc(F)cc1)c1ccccc1Oc1ccc(C(F)(F)F)cc1[N+](=O)[O-] | inconclusive: 22.4 µM [activator, single point] |  |
| CC1(C(=O)NCc2ccc(C(F)(F)F)cc2)CCN1Cc1ccc(-c2ccccc2)o1 (configuration not stated) |  | inactive: 14.1% |
| COc1ccc(C)cc1NC(=O)Cn1c(=O)cc(C)c2c(C)nn(C)c21 |  | inactive: 2.13% |
| CC(NC(=O)c1ccc([N+](=O)[O-])o1)C1CC2CCC1C2 (configuration not stated) |  | inconclusive: 146% [activator] |
| CCc1cccc2c(C(=O)CCl)c[nH]c12 | inconclusive: 20 µM [activator, partial curve, poor fit] |  |
| CC1CCc2c(sc3nc(CN4CCOCC4)nc(NS(=O)(=O)c4cccc([N+](=O)[O-])c4)c23)C1 (configuration not stated) | inconclusive: 35.5 µM [activator, single point] |  |
| COc1cc(CNc2ccc(N3CCN(C(C)=O)CC3)cc2)ccc1OCc1ccc(F)cc1 |  | inactive: 5.36% |
| O=C(Nc1cccc(S(=O)(=O)Nc2ccc(Cl)cc2)c1)c1cc2c(s1)CCCC2 |  | inactive: 16% |
| N/C(=N\OC(=O)c1ccc2c(c1)OCO2)c1ccc(Br)cc1 | active: 3.55 µM |  |
| Cc1ccc(C)c(Nc2cc(C(=O)NCc3cccnc3)c3ccccc3n2)c1 | inconclusive: 35.5 µM [activator, partial curve, poor fit] |  |
